Results reported in PubChem BioAssay AID588855 (National Center for Advancing Translational Sciences (NCATS), 2011).
The whole screen tested about 410,000 compounds, of which about 5,000 (1.2%) were called active. This list was built around the results that the source calls inconclusive (neither active nor inactive); the mix of calls is not that of the screen. Calls follow the shape of the dose curve; as a rule, active = well fitted inhibition curve with a large enough effect; inconclusive = small, poorly fitted or top-dose-only effect; inactive = no such curve, though single readings can be large or run the other way. Potencies of inconclusive entries are doubtful fits and often do not repeat. Where a structure was tested more than once in an assay, its records may differ in their call.

Assay: qHTS for Inhibitors of TGF-b; also: nearly all actives have a fitted effect of over 65% in size
Settings: HepG2 CAGA-GFP TGF-b/SMAD3 reporter, GFP fluorescence, 18 h, TGF-beta stimulated, 500 pg/mL final; series mostly up to 46.1 µM; activity, negative = inhibition: at the top concentration
How it was run: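 Cell-based qHTS in HEPG2 carrying a CAGA-GFP Smad reporter; compounds added before 500 pg/mL final TGF-beta, 18 h incubation at 37 degrees C, GFP fluorescence quantified per cell by imaging cytometry.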
% is scaled to controls: 0 for no effect and ±100 for the full control effect; potency is read from the fitted curve at half-maximal effect; tags tell the direction and shape of the fitted curve.

Structure (SMILES) | Potency | activity, negative = inhibition
CCOC(=O)N1CCN(c2ccc(C(=O)c3cccc(F)c3)cc2)CC1 | inconclusive: 11.2 µM [inhibitor, partial curve, poor fit] | 
Cc1cc(Br)c(OCc2ccc(C(=O)N/N=C/c3ccc[nH]3)cc2)c(Br)c1 | active: 1.12 µM | 
COc1cccc2sc3ccc(C#CC4(N)CCCCC4)cc3c(=O)c12 | inconclusive: 35.5 µM [inhibitor, single point] | 
Cc1ccc(-c2nnc(N3CCC(C)CC3)c3ccccc23)cc1 | inconclusive: 35.5 µM [inhibitor, single point] | 
CCCn1nc(NC(=O)c2ccccn2)c2cc3cc(C)ccc3nc21 |  | inactive: 0%
COc1ccc(NS(=O)(=O)c2cccs2)c(OC)c1 | inconclusive: 6.31 µM [inhibitor, partial curve, poor fit] | 
O=C(N/N=C\c1ccc(CNS(=O)(=O)c2ccc(Cl)cc2)o1)C(=O)Nc1ccc(Oc2ccccc2)cc1 | inconclusive: 10 µM [inhibitor, partial curve, poor fit] | 
COc1ccc(C(CC(=O)Nc2cc([N+](=O)[O-])ccc2OC)c2ccccc2)cc1 (centres undefined) |  | inactive: -24.8%
O=C(COc1ccccc1[N+](=O)[O-])Nc1ccccc1N1CCCC1 | inconclusive: 35.5 µM [inhibitor, single point] | 
CCN(CC(=O)Nc1ccc2c(c1)OCCO2)C(=O)/C=C/c1ccc(OC)cc1OC | inconclusive: 22.4 µM [inhibitor, single point] | 
COc1ccc(-c2noc(CSc3nnc(Cc4ccccc4)n3-c3cccc(C)c3)n2)cc1OC | inconclusive: 12.6 µM [inhibitor, single point] | 
CCOc1ccc(S(=O)(=O)NCc2cccs2)cc1C(C)C | inconclusive: 35.5 µM [inhibitor, single point] | 
C#CCOCCOCCOCCNc1nc(N2CCN(C(=O)CCCCCCCCCCNC(=O)Cn3cc(CCCCCN)nn3)CC2)nc(N2CCN(C(=O)CCCCCCCCCCNC(=O)[C@H]([C@@H](C)CC)n3cc(CCCCN=C(N)N)nn3)CC2)n1 | inconclusive: 35.5 µM [inhibitor, single point] | 
COC(=O)CN1C(=O)CSc2ccc(S(=O)(=O)Nc3cccc(C)c3C)cc21 | inconclusive: 35.5 µM [inhibitor, single point] | 
Cc1cc(Br)c2[nH]cc(CCNC(=O)c3ccco3)c2c1 |  | inactive: -18.2%
Cc1cc2cc(CN(Cc3cccs3)C(=S)NCC3CCCO3)c(=O)[nH]c2cc1C (centres undefined) | inconclusive: 17.8 µM [inhibitor, single point] | 
CC(C)(C)N1C(=O)Cc2c1nc(N)c1c(N)nc(N3CCCCC3CO)c(C#N)c21 (centres undefined) |  | inactive: -29.7%
CN(C)c1ccc(CNc2ccccn2)cc1 |  | inactive: -1.11%
O=C(c1cc(-c2ccco2)on1)N1CCN(C(c2ccccc2)c2ccccc2)CC1 | inconclusive: 0.631 µM [inhibitor, full curve, poor fit] | 
CC(=O)c1ccc(N2CCN(C(=O)c3cn(Cc4ccccc4)nc3-c3cccnc3)CC2)c(F)c1 |  | inactive: 22.2%
CC1CC(C)CN(S(=O)(=O)c2cccc3nsnc23)C1 (centres undefined) |  | inactive: -6.23%
Nc1ccc(Cc2nc3c(ccc4ccccc43)[nH]2)cc1 | inconclusive: 3.55 µM [inhibitor, single point] | 
COc1cccc(CN(C)C(=O)CCN(c2ccccc2)S(=O)(=O)c2ccc(C)cc2)c1OC |  | inactive: 4.12%

Structure (SMILES) | Potency | activity, negative = inhibition
COc1cccc(NC(=O)C2=C(C)C(=O)OC23CCN(C(C)=O)CC3)c1 |  | inactive: 0%
Cc1cccc(N2CCN(S(=O)(=O)c3ccc4[nH]c5c(c4c3)CCCCC5)CC2)c1C | inconclusive: 3.55 µM [inhibitor, partial curve, poor fit] | 
O=C(CSc1nc2ccccc2s1)N/N=C/c1ccco1 |  | inactive: -26.3%
COc1ccccc1CN(C)C[C@@H]1OCc2cnnn2CCCC(=O)N([C@H](C)CO)C[C@H]1C |  | inactive: -4.94%
CCOC(=O)c1cccc(NC(=O)CC2C(=O)N(c3ccc(OC)cc3)C(=O)N2C2CCCC2)c1 (centres undefined) | inconclusive: 0.562 µM [inhibitor, full curve, poor fit] | 
COc1cc(CN2CCN(Cc3ccc(C(F)(F)F)cc3)CC2)cc(OC)c1OC | inconclusive: 20 µM [inhibitor, single point] | 
COc1ccc(C(=O)NC(=S)Nc2ccccc2[N+](=O)[O-])cc1OC |  | inactive: -4.86%
Cc1ccc(N=C(NOCc2ccc(Cl)cc2Cl)c2nonc2N)c(C)c1 | active: 15.8 µM | 
Cc1ccc(N(C)C(=O)C2CCN(S(=O)(=O)c3c(C)noc3/C=C/c3c(C)cc(C)cc3C)CC2)cc1 | inconclusive: 5.62 µM [inhibitor, single point] | 
COc1ccc(NC(=O)CCCN2C(=O)CCn3nc(-c4cn(C)c5ccccc45)cc32)cc1OC | inconclusive: 35.5 µM [inhibitor, single point] | 
O=C(/C=C/c1cccs1)Nc1ccc(N2CCOCC2)c(S(=O)(=O)Nc2ccccc2Cl)c1 | inconclusive: 7.08 µM [inhibitor, full curve] | 
COc1ccc(CN2CC(=O)N(c3ccc(C)c(C)c3)C2=S)cc1OC | inconclusive: 3.55 µM [inhibitor, single point] | 
CCOc1ccc(CN2CCC(Cc3ccccc3)CC2)cc1 | inconclusive: 35.5 µM [inhibitor, single point] | 
Cc1ccc2nc(SCC(=O)N3N=C(c4cccs4)CC3c3ccc(F)cc3)nc(=O)n2c1 (centres undefined) |  | inactive: -0.23%
CC(C)n1nccc1N(Cc1ccc(Cl)cc1)S(=O)(=O)c1ccccc1 | inconclusive: 20 µM [inhibitor, single point] | 
CC(C)(C)c1cc(OC(=O)C2CCCC2)ccc1O | inconclusive: 35.5 µM [inhibitor, single point] | 
CCN(Cc1ccccc1)S(=O)(=O)c1cc(C(=O)NC2CCCCCC2)ccc1OC |  | inactive: -5.47%
CS(=O)(=O)N(CC(=O)NCc1ccncc1)C1CCCCC1 | inconclusive: 6.31 µM [inhibitor, single point] | 
COc1ccccc1NC(=O)CCN1CCCCC1 |  | inactive: -10.1%
OC[C@@H]1[C@@H](c2ccc(Cl)cc2)C(c2ccc(F)cc2)=NN1c1ccccc1 | inconclusive: 35.5 µM [inhibitor, single point] | 
Cc1ccccc1-n1c(Cn2c(=O)sc3ccccc32)nnc1SCC(=O)N1CCCC1 |  | inactive: 19.5%
CC(/C=N/NC(=O)c1cc(-c2ccc(C)s2)[nH]n1)=C\c1ccccc1 | inconclusive: 17.8 µM [inhibitor, partial curve, poor fit] | 
Oc1ccc(NCc2ccccc2OCc2ccccc2F)cc1 | active: 10 µM | 

Structure (SMILES) | Potency | activity, negative = inhibition
CC(=O)c1ccc(NC(=O)CCCSc2nc(-c3ccco3)cc(C(F)(F)F)n2)cc1 | inconclusive: 22.4 µM [inhibitor, single point] | 
CC(=O)Nc1ccc(NC(=O)C/C(C)=N/NC(N)=S)cc1 | inconclusive: 35.5 µM [inhibitor, single point] | 
Cc1ccc(-n2nc3c(=O)n(C(C)C(=O)NCCCc4ccccc4)nc(C)c3c2C)cc1 (centres undefined) | inconclusive: 11.2 µM [inhibitor, partial curve, poor fit] | 
Cc1c(Cl)cccc1NC(=O)c1ncoc1-c1ccco1 |  | inactive: -4.6%
CCOC(=O)c1c(C)[nH]c(C)c1C(=O)COC(=O)c1ccc([N+](=O)[O-])s1 | inconclusive: 25.1 µM [inhibitor, single point] | 
COc1ccc(C)cc1S(=O)(=O)N1CCC(C(=O)NC2CCCC2)CC1 |  | inactive: -23.7%
CC(C)C(NC(=O)c1ccc(C(C)(C)C)cc1)C(=O)NCc1ccccn1 (centres undefined) |  | inactive: -0.106%
O=C(O)c1ccc(-n2c(O)c(C=C3N=c4ccccc4=N3)sc2=S)cc1 |  | inactive: -1.94%
CCOc1ccc(CCNC(=O)COC(=O)COc2ccc(C(C)=O)cc2)cc1OCC |  | inactive: -12.5%
FC(F)(F)c1ccc(CN2C[C@@H]3C(c4ccc(Cl)nc4)C4(c5cccnc5)CC3(C4)[C@H]2c2ccccc2)cc1 (some centres undefined) | inconclusive: 35.5 µM [inhibitor, single point] | 
FC(F)(F)c1cccc(NC(=S)NCC2COc3ccccc3O2)c1 (centres undefined) | inconclusive: 35.5 µM [inhibitor, single point] | 
CCN(Cc1ccccc1)S(=O)(=O)c1c(C)[nH]c(C)c1C(=O)N1CCCCC1 |  | inactive: 8.05%
CCn1nc(C)c(C(=O)Nc2cc(Oc3ccc(Cl)cc3)cc([N+](=O)[O-])c2)c1C | inconclusive: 35.5 µM [inhibitor, single point] | 
O=C1CCCN1CCCNCCCn1cnc2c(OCc3ccccc3)ncnc21 |  | inactive: 0.945%
COc1cccc(NC(=O)N2CCN(c3ccc(C(F)(F)F)cn3)CC2)c1 | inconclusive: 15.8 µM [inhibitor, single point] | 
COc1cccc(OC)c1C(=O)Nc1cccc(-c2nc3ccccc3[nH]2)c1 |  | inactive: -14.6%
CCSc1ccc([C@@H]2[C@H]3C(=O)N(C)C(=O)[C@H]3[C@]3(C(=O)OC)CCCCN23)cc1 | inconclusive: 35.5 µM [inhibitor, single point] | 
CCn1ncc(Br)c1C(=O)Nc1c(C)nn(Cc2c(F)c(F)c(F)c(F)c2F)c1C |  | inactive: 11%
Cc1ccccc1CN(C)CCS(=O)(=O)c1cc(Cl)ccc1Cl | inconclusive: 35.5 µM [inhibitor, single point] | 
Cc1ccc2nc(N3C(=O)CNC3=S)sc2c1 | active: 11.2 µM | 
CC(=O)N1CSCC1C(=O)NNS(=O)(=O)c1ccccc1 (centres undefined) |  | inactive: 1.28%
CN(C)NC(=O)c1ccc([N+](=O)[O-])s1 |  | inactive: -20.3%
CCN(C[C@H]1N[C@@](Cc2ccccc2)(C(=O)OC)[C@H]2C(=O)N(Cc3ccccc3)C(=O)[C@@H]12)C(=O)Nc1ccc(C)cc1 | inconclusive: 15.8 µM [inhibitor, partial curve] | 
